Measured values taken from PubChem BioAssay AID463173 (ICCB-Longwood Screening Facility, Harvard Medical School, 2010).
Among all 52,000 compounds or so, about 1,700 (3.3%) were called active. No stated cut-off is given here; in the data, active means survival mostly below about 52% (no sharp cut-off); inactive means mostly above about 56%. The list shows a part of the results.

What follows are molecules tested on Wild type (assay: S. aureus survival, RN4220 and DeltatarO strains – OD600, teichoic acid synthesis inhibitors, primary screen (AID 463173)). Settings: S. aureus RN4220 wild type/DeltatarO growth, OD600, 18 h, stronger effect = lower value, screened at 18.75 µg/mL (by protocol).

SMILES | survival
CCCOc1ccc(C(=O)Nc2c(C(=O)c3ccc(C)cc3)oc3ccccc23)cc1 | inactive: 54%
COc1ccc(CNC(=O)Cn2c(=O)oc3cc(S(=O)(=O)N4CCCC4)ccc32)cc1 | inactive: 91%
COc1ccc2c(C)c(CCC(=O)NCCc3ccc(Cl)cc3)c(=O)oc2c1 | inactive: 69%
CCCCc1ccc(C(=O)N/C(=C\c2ccc(C)cc2)C(=O)NC2CCCCC2)cc1 | inactive: 68%
Cc1cc(C(F)F)n2nc(C(=O)Nc3ccc(F)c(Cl)c3)nc2n1 | inactive: 83%
Cc1ccc(Cl)cc1N1CCN(C(=O)c2ccc(C)c(-n3c(C)nc4cccnc43)c2)CC1 | inactive: 126%
CCc1nc2ccc(C(=O)N3CCN(c4ccc(Cl)cc4)CC3)cc2nc1CC | inactive: 73%
CCOc1ccc(C(=O)N(CC#N)CC#N)cc1 | inactive: 110%
NNC(=O)CNC(=O)c1cccs1 | inactive: 125%
O=C(CC1N=C2c3ccccc3N=C(SCc3ccccc3F)N2C1=O)NCc1cccs1 (stereo not given) | inactive: 75%
COc1cccc(Nc2nc(-c3ccccc3)c3cc(C)ccc3n2)c1 | active: 9%
Cc1cccc(CNC(=O)c2ccc(Cn3c(=O)c4cccn4c4cccnc43)cc2)c1 | inactive: 82%
COc1cc(C2CC(=O)Nc3c2c(=O)nc2c(C)cccn32)cc(OC)c1OC (stereo not given) | inactive: 75%
CCS(=O)(=O)N1CCN(C(=O)c2ccc(OC)cc2)CC1 | inactive: 100%
CCN(CCCNC(=O)c1cc2cc3ccc(OC)cc3nc2s1)c1ccccc1 | inactive: 90%
Cc1ccc(NC(=O)C(Cc2ccccc2)NS(=O)(=O)c2cccc3nsnc23)c(C)c1 (stereo not given) | inactive: 123%
CCN1CCC(N(Cc2ccc3c(c2)OCO3)C(=O)Nc2ccc(Br)c(C)c2)CC1 | inactive: 73%
Cc1nn2c(-c3cccc(NC(=O)c4ccc(Cl)cc4)c3)nnc2c2ccccc12 | inactive: 113%
CCS(=O)(=O)N1CCc2cc(C(=O)Nc3cc(Cl)ccc3C)ccc21 | inactive: 86%
C=CCNC(=O)c1cccc(Br)c1 | inactive: 104%
COc1ccc(-n2c(-c3ccco3)nc3c(cnn3-c3ccc(C)cc3)c2=O)cc1 | inactive: 78%
CCOC(=O)c1c(C)[nH]c(CCC(=O)Nc2ccccc2C(=O)OC)c1C | inactive: 67%
CC(C)C(=O)Nc1ccc2nc(SCCOc3ccccc3)sc2c1 | inactive: 93%

SMILES | survival
CCn1c(=O)n(CC)c2cc(N3CCCCC3)c(NC(=O)Nc3cc(Cl)ccc3OC)cc21 | inactive: 55%
COc1ccc(CCNC(=O)CCS(=O)(=O)c2ccc3c(c2)oc(=O)n3C)cc1OC | inactive: 125%
CCCCOCc1cc(CN2CCN(c3cccc(Cl)c3)CC2)c(O)c2ncccc12 | inactive: 127%
Cc1ccc(N2CCN(C(=O)c3cn(C)c4ccc(S(=O)(=O)N(C)C5CCCCC5)cc4c3=O)CC2C)cc1 (stereo not given) | inactive: 85%
O=C(CSc1nnc(CNC(=O)c2c(F)cccc2Cl)o1)Nc1cccc(F)c1 | inactive: 83%
CCOc1ccc(NS(=O)(=O)c2ccc(NC(=O)N3CCCC3)cc2)cc1 | inactive: 73%
O=C(Nc1ccc2nn(-c3ccccc3)nc2c1)c1ccc(-c2cccc(Cl)c2)o1 | inactive: 110%
CCOC(=O)/C(C)=C1\NC(C)(C)Cc2ccccc21 | inactive: 109%
CCOc1ccc(C(=O)N2CCN(Cc3cc(=O)n4nc(-c5ccccc5Cl)sc4n3)CC2)cc1 | inactive: 58%
COc1ccccc1NC(=O)C1=C(C)Nc2nc(SCc3cc(C)ccc3C)nn2C1c1ccccc1 (stereo not given) | inactive: 135%
O=C(c1cccs1)N1CCCc2cc(NS(=O)(=O)c3ccc(F)cc3)ccc21 | inactive: 131%
CC(C)Cn1c(/C=C/c2ccc(F)cc2)nc2ccccc21 | active: -12%
COCCCNC(=O)CCc1c(C)nc2cc(-c3ccc(Cl)cc3)nn2c1C | inactive: 121%
O=C(c1ccc2c(=O)n(CCc3ccccc3)c(=O)[nH]c2c1)N1CCN(c2ccc(Cl)cc2)CC1 | inactive: 60%
CCn1c(C)c(C)c2cc(C(=O)NCCc3ccc(C)cc3)ccc21 | inactive: 80%
Cc1ccc(C)c(NC(=O)c2cc(=O)c3cc(C)cc(C)c3o2)c1 | inactive: 84%
Cc1ccc(NC(=O)Cn2c(=O)ccc3cc(S(=O)(=O)N4CCC(C)CC4)ccc32)cc1Cl | inactive: 88%
COc1cccc(NC(=O)CCNC(=O)Cn2ccc3ccccc3c2=O)c1 | inactive: 70%
COc1ccc(N(C)C(=O)c2ccc3c(c2)nnn3C)cc1 | inactive: 111%
Cc1ccccc1CS(=O)(=O)Cc1ccc(C(=O)NCc2ccc(F)cc2)o1 | inactive: 60%
CC(C)C(=O)OCc1cc(=O)n2nc(C3CCCCC3)sc2n1 | inactive: 76%
CCc1ccc(NCc2cc3cc4c(cc3n(CC(=O)Nc3ccc(F)cc3)c2=O)OCCO4)cc1 | inactive: 45%
COc1ccc(CNC(=O)C2CCN(S(=O)(=O)c3cccc4nonc34)CC2)cc1OC | inactive: 77%

SMILES | survival
Cc1ccc(NC(=O)CSc2nnc(N)s2)c(C)c1 | inactive: 131%
CCCCNC(=O)CCc1c(C)nc2c(c(C)nn2-c2ccccc2)c1C | inactive: 81%
CCN(CC)c1ccc(C2C(C(N)=O)=C(C)Nc3ncnn32)cc1 (stereo not given) | inactive: 53%
Cn1ccnc1SCC(=O)Nc1cc(Cl)ccc1Cl | inactive: 66%
Cc1ccc(NC(=O)C2CCCN2S(=O)(=O)c2cccc3cccnc23)cc1C (stereo not given) | inactive: 70%
Cc1cccc(CS(=O)(=O)c2ncc(Cl)c(C(=O)NCc3ccccc3)n2)c1 | inactive: 27%
COc1ccccc1N1CCN(C(CNC(=O)C(=O)NCCc2ccccc2)c2cccnc2)CC1 (stereo not given) | inactive: 81%
O=C(NCCc1ccccc1)c1cc(Sc2ccc(F)cc2F)nc2ccccc12 | inactive: 88%
Cc1ccccc1CN1CCCN(CC(=O)Nc2c(C)cccc2C)S1(=O)=O | inactive: 66%
COc1cccc(OCc2nc3ccccc3n2CCOc2cccc(C)c2)c1 | inactive: 73%
N#Cc1cnc(SCc2ccccc2)nc1N | inactive: 98%
Fc1ccc(CNc2nc(-c3ccccc3)cc(C(F)(F)F)n2)cc1 | active: -3%
CCC(C(=O)Nc1ccc(C(C)=O)cc1)n1c(C)c2cnn(-c3ccccc3)c(=O)c2c1C (stereo not given) | inactive: 92%
COc1ccc(NS(=O)(=O)c2ccc3[nH]c4c(c3c2)CCCCCC4)cc1 | active: -4%
Cn1c(=O)c2c(nc(SCC(=O)Nc3ccc(F)cc3)n2Cc2ccccc2)n(C)c1=O | inactive: 70%
CCc1ccc(C2c3c(oc4ccc(C)cc4c3=O)C(=O)N2c2nc(C)c(C)s2)cc1 (stereo not given) | inactive: 134%
O=C(Cn1cnc2scc(-c3ccccc3)c2c1=O)NCc1ccco1 | inactive: 108%
CCOc1cc(C2c3c(-c4ccccc4O)n[nH]c3C(=O)N2CCc2ccccc2)ccc1O (stereo not given) | inactive: 81%
CNC(=O)COc1ccc(Nc2nnc(-c3ccc(C)c(S(=O)(=O)NC(C)(C)C)c3)c3ccccc23)cc1 | inactive: 98%
COc1cc(NC(=O)Cn2cc(S(=O)(=O)c3ccccc3)c(=O)c3ccccc32)cc(OC)c1 | inactive: 78%
COc1cccc(-c2ccc3c(N)c(C(=O)Nc4ccc(C)c(F)c4)sc3n2)c1 | inactive: 110%
COc1ccc(-c2cc(C(F)(F)F)nc(SCCC(=O)Nc3c(C)cccc3C)n2)cc1 | inactive: 77%
Cc1ccc(OCC(=O)Nc2ccc(C(=O)OCc3cc(=O)n4c(C)csc4n3)cc2)cc1 | inactive: 136%

SMILES | survival
COc1ccc(-c2onc(C)c2C)cc1S(=O)(=O)NC1CCC(C)CC1 (stereo not given) | inactive: 56%
O=C(Nc1ccc(F)cc1F)c1ccc(-n2cnnc2)cc1 | inactive: 69%
Cc1cccc(NC(=O)CSc2cc(C)c3ccccc3n2)c1 | inactive: 78%
Cc1cc(-n2c(C)nc3ccccc3c2=O)ccc1NC(=O)c1cccc([N+](=O)[O-])c1 | inactive: 83%
Cc1ccc(-n2c(=O)c3oc4ccccc4c3n(CC(=O)Nc3ccccc3)c2=O)cc1C | inactive: 75%
Cc1ccc(Cn2c(CNC(=O)c3ccccc3Br)nc3cccnc32)cc1 | inactive: 129%
CCc1ccccc1NC(=O)Cc1c(C(=O)O)[nH]c2ccc(Cl)cc12 | inactive: 73%
COc1ccc(N2CCN(C(=O)Nc3cccc(C(F)(F)F)c3)CC2)cc1 | inactive: 141%
CC(C)CNC(=O)C1=CC(c2ccc3c(c2)OCO3)=NS(=O)(=O)N1C | inactive: 83%
COC(=O)CSc1nnc(CNc2ccc(Cl)cc2)n1-c1ccc(OC)cc1 | inactive: 105%
Oc1c(C(c2ccccc2)N2CCN(c3ccccc3)CC2)sc2nc(-c3ccco3)nn12 (stereo not given) | inactive: 121%
O=C(NCCc1ccccc1)C(=O)Nc1cccc(Br)c1 | inactive: 89%
CCOC(=O)c1c(NC(=O)c2cc(-c3ccc(OC)cc3)on2)sc(C)c1C | inactive: 76%
O=C(CSc1nc(=O)[nH]c2c1CCC2)NCc1ccccc1 | inactive: 60%
Cn1c(CCNC(=O)c2ccco2)nc2cc(NC(=O)COc3ccc(Cl)cc3)ccc21 | inactive: 98%
O=C(CN(c1ccccn1)S(=O)(=O)c1ccccc1)N=Nc1c(O)[nH]c2ccccc12 | inactive: 108%
Cc1ccc(C(=O)COC(=O)CCC(=O)Nc2ccc(Oc3ccccc3)cc2)cc1C | inactive: 71%
Cc1ccc(Cl)cc1N1CCN(C(=O)C2CCN(Cc3nc(-c4cccc(Cl)c4)oc3C)CC2)CC1 | active: -4%
COc1ccc(CNC(=O)Cc2csc3nc(-c4ccc(C)cc4)cn23)cc1 | inactive: 69%
COC(=O)CC1Oc2ccccc2-n2cc(-c3ccc(Cl)cc3)nc21 (stereo not given) | inactive: 101%
Cc1ccccc1C(=O)Nc1nnc(S(=O)(=O)N2CCCCCC2)s1 | inactive: 63%
